T1: IL-10R on freshly isolated human blood monocytes (human, UniProt Q13651 22-578; Q08334 20-325)
T1 sequence (looked up) 1: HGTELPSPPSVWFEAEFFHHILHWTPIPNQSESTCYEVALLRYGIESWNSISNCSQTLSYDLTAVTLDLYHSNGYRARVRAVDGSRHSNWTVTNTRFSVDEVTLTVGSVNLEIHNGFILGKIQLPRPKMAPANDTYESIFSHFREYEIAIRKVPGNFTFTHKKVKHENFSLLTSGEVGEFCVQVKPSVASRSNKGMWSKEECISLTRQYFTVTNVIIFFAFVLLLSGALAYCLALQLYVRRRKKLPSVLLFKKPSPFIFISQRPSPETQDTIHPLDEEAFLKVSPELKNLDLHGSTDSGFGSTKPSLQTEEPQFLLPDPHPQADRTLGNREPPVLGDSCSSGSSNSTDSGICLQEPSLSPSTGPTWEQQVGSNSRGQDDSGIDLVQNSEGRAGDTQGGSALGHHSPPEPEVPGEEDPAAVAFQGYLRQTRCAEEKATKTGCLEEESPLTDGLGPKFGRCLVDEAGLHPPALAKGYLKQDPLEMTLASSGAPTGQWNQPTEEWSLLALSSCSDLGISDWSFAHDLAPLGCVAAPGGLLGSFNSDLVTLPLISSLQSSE
T1 sequence (looked up) 2: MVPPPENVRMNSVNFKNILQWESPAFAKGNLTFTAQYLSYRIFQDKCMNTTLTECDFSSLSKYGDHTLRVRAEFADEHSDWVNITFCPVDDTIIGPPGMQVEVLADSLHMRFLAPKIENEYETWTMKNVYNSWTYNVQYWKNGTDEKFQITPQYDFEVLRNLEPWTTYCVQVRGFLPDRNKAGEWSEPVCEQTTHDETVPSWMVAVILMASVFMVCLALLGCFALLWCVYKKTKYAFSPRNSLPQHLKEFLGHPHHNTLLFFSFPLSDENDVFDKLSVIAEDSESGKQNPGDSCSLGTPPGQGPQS


Key:
[1] = target: T2, recombinant human FAP coated on cell culture plates (human, UniProt Q12884 26-760, limits assumed); test: cell-based or functional assay
[2] = target: T2, recombinant human FAP coated on cell …; test: cell-based or functional assay; remark: listed apart in the source
[3] = target: T2, recombinant human FAP coated on cell …; test: cell-based or functional assay; remark: listed apart in the source
[4] = target: T1, IL-10R on freshly isolated human blood …; test: cell-based or functional assay
[5] = target: T3, His-tagged human FAP ECD (human, UniProt Q12884 27-760); test: SPR ProteOn XPR36, 25 C; His-tagged FAP captured by anti-penta-His IgG, construct as analyte
T3 construct: also called hu FAP
Procedure: (§1) To determine the affinities to FAP, the target protein was captured via its H6-tag by a covalently immobilized anti-H6 antibody (FIG. 9A). Briefly, anti-penta His IgG (Qiagen #34660, mouse monoclonal antibody) was immobilized at high levels (up to ˜5.000 RU) at 30 μ/min onto separate vertical channels of a GLM chip by simultaneously activating all channels for 5 min with a freshly prepared mixture of 1-ethyl-3-(3-dimethylaminopropyl)-carboiimide (EDC) and N-hydroxysuccinimide (sNHS), subsequently injecting 15 μg/ml anti-penta His IgG in 10 mM sodium acetate buffer pH 4.5 for 180 sec. Channels were blocked using a 5-min injection of ethanolamine. H6-tagged FAP from different species (see SEQ ID NOs 81, 83 and 85) was captured from a 5 μg/ml dilution in running buffer along the vertical channels for 60 s at 30 μl/min to achieve ligand densities between ˜250 and 600 RU. In a one-shot kinetic assay set-up (OSK), antibody-IL-10 fusion constructs were injected as analytes along the horizontal channels in a five-fold dilution series ranging from 50 to 0.08 nM at 100 μl/min. Association phase was recorded for 180 s, dissociation phase for 600 s. […] Running buffer (PBST) was injected along the sixth channel to provide an “in-line” blank for referencing. Association rates (kₒₙ) and dissociation rates (koff) were calculated using a simple 1:1 Langmuir binding model (ProteOn Manager software version 2.1) by simultaneously fitting the association and dissociation sensorgrams. The equilibrium dissociation constant (KD) was calculated as the ratio koff/kₒₙ.

[6] = target: T4, His-tagged mouse FAP ECD (mouse, UniProt P97321 27-761); test: as above
T4 construct: also called mu FAP; murine FAP
Procedure: as §1

[7] = target: T5, His-tagged cynomolgus FAP ECD (cynomolgus, UniProt Q12884 27-760 (human entry)); test: as above
T5 construct: also called cyno FAP
Procedure: as §1

Binder	EC50 [nM] IL-6, suppression of IL-6 production by monocytes, Set-up (b), donor 7 [1] [nM]	EC50, suppression of hIL-6 production by monocytes, set-up (b) (immobilized) [2] [pM]	EC50, down-regulation of IFNγ-induced MHC-II expression on primary monocytes, set-up (b) (immobilized) [3] [pM]	EC50 [nM] pSTAT3 induction, primary monocytes [4] [nM]	Kd [5] [pM]	koff [5] [s⁻¹]	kon [5] [M⁻¹ s⁻¹]	Kd [6] [pM]	koff [6] [s⁻¹]	kon [6] [M⁻¹ s⁻¹]	Kd [7] [pM]	koff [7] [s⁻¹]	kon [7] [M⁻¹ s⁻¹]
4B9 IgG-IL-10 (other, also called IgG-IL-10 (clone 4B9)) heavy: EVQLLESGGGLVQPGGSLRLSCAASGFTFSSYAMSWVRQAPGKGLEWVSAIIGSGASTYYADSVKGRFTISRDNSKNTLYLQMNSLRAEDTAVYYCAKGWFGGFNYWGQGTLVTVSSASTKGPSVFPLAPSSKSTSGGTAALGCLVKDYFPEPVTVSWNSGALTSGVHTFPAVLQSSGLYSLSSVVTVPSSSLGTQTYICNVNHKPSNTKVDKKV[human IgG1 Fc with changes omitted here]GGGGSGGGGSGGGGSGGGGSSPGQGTQSENSCTHFPGNLPNMLRDLRDAFSRVKTFFQMKDQLDNLLLKESLLEDFKGYLGCQALSEMIQFYLEEVMPQAENQDPDIKAHVNSLGENLKTLRLRLRRCHRFLPCENKSKAVEQVKNAFNKLQEKGIYKAMSEFDIFINYIEAYMTMKIRN light: EIVLTQSPGTLSLSPGERATLSCRASQSVTSSYLAWYQQKPGQAPRLLINVGSRRATGIPDRFSGSGSGTDFTLTISRLEPEDFAVYYCQQGIMLPPTFGQGTKVEIKRTVAAPSVFIFPPSDEQLKSGTASVVCLLNNFYPREAKVQWKVDNALQSGNSQESVTEQDSKDSTYSLSSTLTLSKADYEKHKVYACEVTHQGLSSPVTKSFNRGEC	0.002	11	18	0.13	10.6	4.03e-05	3.81e+06	58.3	0.000124	2.12e+06	5.22	2.86e-05	5.47e+06
4B9 IgG-(IL-10M1)2 (other, also called IgG-(IL-10M1)2 (clone 4B9)) heavy: EVQLLESGGGLVQPGGSLRLSCAASGFTFSSYAMSWVRQAPGKGLEWVSAIIGSGASTYYADSVKGRFTISRDNSKNTLYLQMNSLRAEDTAVYYCAKGWFGGFNYWGQGTLVTVSSASTKGPSVFPLAPSSKSTSGGTAALGCLVKDYFPEPVTVSWNSGALTSGVHTFPAVLQSSGLYSLSSVVTVPSSSLGTQTYICNVNHKPSNTKVDKKV[human IgG1 Fc with changes omitted here]GGGGSGGGGSGGGGSSPGQGTQSENSCTHFPGNLPNMLRDLRDAFSRVKTFFQMKDQLDNLLLKESLLEDFKGYLGCQALSEMIQFYLEEVMPQAENQDPDIKAHVNSLGENLKTLRLRLRRCHRFLPCENGGGSGGKSKAVEQVKNAFNKLQEKGIYKAMSEFDIFINYIEAYMTMKIRN light: EIVLTQSPGTLSLSPGERATLSCRASQSVTSSYLAWYQQKPGQAPRLLINVGSRRATGIPDRFSGSGSGTDFTLTISRLEPEDFAVYYCQQGIMLPPTFGQGTKVEIKRTVAAPSVFIFPPSDEQLKSGTASVVCLLNNFYPREAKVQWKVDNALQSGNSQESVTEQDSKDSTYSLSSTLTLSKADYEKHKVYACEVTHQGLSSPVTKSFNRGEC				0.435	16.8	9.73e-05	5.8e+06	36.9	0.000109	2.97e+06	12.1	7.77e-05	6.4e+06
